Experimental data as given in the supplement of paper PMC3334620.
In all, about 33,000 sequences were measured (“E-score (-0.5 to 0.5)”: median about -0.012, highest 2% from about 0.29 on). This is one part of the list.

Molecular target: T1, Ybr033w (UniProt P38073)
T1 sequence: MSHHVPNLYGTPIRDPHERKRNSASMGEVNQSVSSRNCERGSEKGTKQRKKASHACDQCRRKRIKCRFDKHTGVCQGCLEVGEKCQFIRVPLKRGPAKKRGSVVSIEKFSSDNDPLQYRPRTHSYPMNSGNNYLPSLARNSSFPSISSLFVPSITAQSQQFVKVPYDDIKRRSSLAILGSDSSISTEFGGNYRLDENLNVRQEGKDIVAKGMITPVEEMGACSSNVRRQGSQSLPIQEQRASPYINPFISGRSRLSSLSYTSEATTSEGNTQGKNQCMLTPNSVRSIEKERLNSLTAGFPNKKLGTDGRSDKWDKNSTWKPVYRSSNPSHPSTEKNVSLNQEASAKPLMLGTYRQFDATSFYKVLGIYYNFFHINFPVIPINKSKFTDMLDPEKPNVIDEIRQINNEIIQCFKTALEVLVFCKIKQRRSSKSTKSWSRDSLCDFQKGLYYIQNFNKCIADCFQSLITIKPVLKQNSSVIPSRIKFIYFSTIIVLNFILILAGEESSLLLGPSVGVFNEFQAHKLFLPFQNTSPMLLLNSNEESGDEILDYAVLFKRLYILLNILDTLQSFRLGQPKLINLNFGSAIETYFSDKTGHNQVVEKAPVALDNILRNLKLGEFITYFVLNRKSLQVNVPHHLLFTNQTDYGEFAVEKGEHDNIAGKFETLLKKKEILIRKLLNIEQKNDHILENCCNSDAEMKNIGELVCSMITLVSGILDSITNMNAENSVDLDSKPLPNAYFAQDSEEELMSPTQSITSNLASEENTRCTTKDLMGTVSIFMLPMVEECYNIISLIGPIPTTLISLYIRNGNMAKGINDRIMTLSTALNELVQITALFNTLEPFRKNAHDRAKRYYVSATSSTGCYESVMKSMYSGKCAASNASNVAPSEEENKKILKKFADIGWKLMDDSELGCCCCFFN
Assay: PBM E-score (8-mer binding enrichment) (E-score (-0.5 to 0.5)); higher = stronger / more preferred TF binding; most listed sequences are background and not binding sites
Settings: protein concentration: 200 nM; construct: GST-full length
Outline: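 PURExpress in vitro transcription/translation supplied GST-tagged yeast transcription factors, either full-length or DNA-binding domain. Applied at about 100-200 nM to universal all-10-mer Agilent arrays double-stranded by primer extension, the bound protein was detected with fluorescent anti-GST. E-scores, modified Wilcoxon-Mann-Whitney statistics, were given by the Universal PBM Analysis Suite to ungapped eight-base words pooled with their reverse complements after masliner normalisation.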

Row | Sequence | PBM E-score
1 | CCCAACAA | 0.0356
2 | CGACACAG | -0.103
3 | AGCATGCT | -0.0521
4 | CCTAAACC | -0.135
5 | CTAGATCC | -0.143
6 | ACGGTGAA | 0.189
7 | GTCGTCAC | -0.0476
8 | GCCTGTGA | -0.251
9 | AGCACTTA | -0.0291
10 | ATTAGGTC | 0.201
11 | GAATTAAA | 0.149
12 | ACCGCCGG | -0.117
13 | GTTGTTCA | 0.0634
14 | TAGTACTA | 0.0809
15 | CTACGTTA | -0.0152
16 | CACCTCGG | -0.159
17 | TACATGAA | 0.104
18 | GGAACTCC | -0.154
19 | ACTGGACT | -0.126
20 | GTATCCTA | -0.038
21 | GACATAAA | 0.0826
22 | GTCCTGTA | 0.0689

Row | Sequence | PBM E-score
23 | AGGACATA | -0.00127
24 | CACAGACG | -0.12
25 | GTAAATAA | 0.279
26 | TAGTTTCA | 0.247
27 | GACAGTCA | -0.16
28 | AGTAGCTC | -0.0251
29 | ATATGCCG | 0.0394
30 | AGCGATTG | -0.0938
31 | ACTGAGAG | -0.126
32 | GAGAAGAA | -0.0376
33 | TGCCAGAA | -0.112
34 | ACGGTACG | -0.0478
35 | TACTTGCA | 0.106
36 | GCCCGTCC | -0.3
37 | ACTTCTAA | -0.0604
38 | GTGGCATA | -0.0451
39 | AGGTTCTG | -0.0768
40 | AGTCGAAA | 0.0724
41 | CCTACATA | -0.0758
42 | GGGTCTGA | -0.111
43 | CATTTTGG | -0.0616
44 | GATACACA | 0.0863

Row | Sequence | PBM E-score
45 | AGAAATAG | 0.227
46 | CTAAATCA | 0.206
47 | GTACCCGA | -0.222
48 | CTCTCCGA | -0.0897
49 | ACACTGCT | -0.12
50 | ACGGAGCG | -0.107
51 | AACAGAAT | 0.179
52 | GTATTCAA | 0.205
53 | CTTCTAGA | 0.0265
54 | ACCGTCCC | -0.184
55 | GAAAGAGA | -0.0161
56 | AACTTCCG | 0.168
57 | ATCCGCTG | -0.0808
58 | ATGCAGTA | 0.156
59 | ACTTTAAT | 0.114
60 | AACGTTCG | -0.0562
61 | CGTCCCGC | -0.183
62 | ACTCGTGA | -0.0972
63 | AAGCTTTG | -0.00097
64 | AAGATAGC | -0.0304
65 | TCAGGTCA | -0.0657
66 | ATGTGAGC | -0.189

Row | Sequence | PBM E-score
67 | CTCGGCAG | -0.0126
68 | AAGTGCGT | 0.0329
69 | CCGGGTGA | -0.00109
70 | GCATAAAA | 0.176
71 | AAGCACCT | -0.0785
72 | ATATTGGC | -0.0342
73 | CACCTGCG | 0.0425
74 | GGTGTTGA | -0.214
75 | AAGCCCAG | -0.0433
76 | ATAGCCTG | -0.0998
77 | AAGGCAAT | 0.115
78 | GACTGCAA | -0.213
79 | ACACATCC | 0.0039
80 | ACATAGAC | -0.0428
81 | CGCCCCGC | -0.215
82 | TCCAATAA | 0.201
83 | AACGTACT | 0.133
84 | ATACTGGA | 0.211
85 | AGCACCGA | 0.0778
86 | AAAGTGCT | 0.173
